Assay results reported in the RNAGym collection of RNA variant scans (doi:10.7554/elife.90254).
The source gives no read counts; variants with many changes may rest on few reads.

B1: OR4K15 (parent)
chain: GUUAACGGUCAUAGGCCAUGGAAACUAGGAGCACCAUUUCGCUGCCAGUGAAGAAAUGAACAAAGAAAAUCUGGGCCAGGCAGGCAUCAAAAGAAAUAGUCUUGCGCUCAACCAGAAAGUCUGUAAUCAUUUUAAGGGUA

Variants of: B1
Assay: self-cleavage, relative activity (ratio to wild type); higher = more cleavage; in vitro, sequencing; the parent is a self-cleaving ribozyme

Question: Which self-cleavage does the source give for A96G A114U U131C here?
Answer: 0.02

Question: For G106U U131C U132C, which self-cleavage is on record?
Answer: 0

Question: With U87C A92G U130C as the variant, how does the self-cleavage read?
Answer: 0.17

Question: For A89G A118G A134G, which self-cleavage is on record?
Answer: 1.02

Question: For A110U A111G U122A G138A, which self-cleavage is on record?
Answer: 0.01

Question: Which self-cleavage does the source give for A90U A94U U131C here?
Answer: 2.04

Question: Which self-cleavage does the source give for A92G U102C U120C here?
Answer: 2.38

Question: For A116U A117G U124C U130C, which self-cleavage is on record?
Answer: 0.02

Question: For A92G A94U U131C, which self-cleavage is on record?
Answer: 0.72

Question: For U87C U100C U108C U130C, which self-cleavage is on record?
Answer: 0

Question: With A86G A91U A94G as the variant, how does the self-cleavage read?
Answer: 1.38

Question: Which self-cleavage does the source give for A91G U102C U108A U133A here?
Answer: 0

Question: Which self-cleavage does the source give for A86G U87A A116G A129G here?
Answer: 0.31

Question: With U103C U127C U133C as the variant, how does the self-cleavage read?
Answer: 0.77

Question: For U97C A118C G123U, which self-cleavage is on record?
Answer: 2.39

Question: For A92U A94G U108C U132C, which self-cleavage is on record?
Answer: 0

Question: Which self-cleavage does the source give for U87C U120C U122C here?
Answer: 1.24

Question: Which self-cleavage does the source give for G84A A86G A91G U102A A117G here?
Answer: 0.75

Question: With G93A A110G U132C as the variant, how does the self-cleavage read?
Answer: 0.05

Question: For A116G U130C A135U, which self-cleavage is on record?
Answer: 0.09

Question: For A92G U132C A134U, which self-cleavage is on record?
Answer: 1.08

Question: For A94G A117G A135C, which self-cleavage is on record?
Answer: 0.7

Question: Which self-cleavage does the source give for A116G U122C U131G G138A here?
Answer: 0.71

Question: With A94G A110G U120A as the variant, how does the self-cleavage read?
Answer: 0.27

Question: Which self-cleavage does the source give for C85A U122A G138A here?
Answer: 1.94

Question: Which self-cleavage does the source give for A91G A92G U132C here?
Answer: 1.18

Question: For G83U A96U U130A, which self-cleavage is on record?
Answer: 0.21

Question: With U103C A114G U132C as the variant, how does the self-cleavage read?
Answer: 0.04

Question: With A89G A129U U130C as the variant, how does the self-cleavage read?
Answer: 0.94

Question: Which self-cleavage does the source give for A90G A114G A135U here?
Answer: 0.07

Question: Which self-cleavage does the source give for A94C A95G U139C here?
Answer: 1.46

Question: Which self-cleavage does the source give for A89G A95U A96G U122C here?
Answer: 0.15

Question: With U102A A118U U132C as the variant, how does the self-cleavage read?
Answer: 0.11

Question: Which self-cleavage does the source give for U87C U127C A140G here?
Answer: 0.64

Question: With A117G A118G A140C as the variant, how does the self-cleavage read?
Answer: 1.42

Question: For A91U U97C A111G U120C, which self-cleavage is on record?
Answer: 0

Question: With A110U A111G A114U A118G as the variant, how does the self-cleavage read?
Answer: 0

Question: For A116C U131C A135G, which self-cleavage is on record?
Answer: 0.03

Question: With A92G A117G U131C as the variant, how does the self-cleavage read?
Answer: 1.33

Question: With U108A A117G A134G as the variant, how does the self-cleavage read?
Answer: 0.01

Question: With A96G A126G A134G as the variant, how does the self-cleavage read?
Answer: 1.15

Question: With C85U A91G A118G A129G as the variant, how does the self-cleavage read?
Answer: 0.12

Question: For A95G U120C U132C, which self-cleavage is on record?
Answer: 1.79

Question: Which self-cleavage does the source give for A92G U108A G136A here?
Answer: 0

Question: Which self-cleavage does the source give for A89G A118G U127C here?
Answer: 0.33

Question: For A94G U100C U124A, which self-cleavage is on record?
Answer: 1.01

Question: For A94G A96G U100C, which self-cleavage is on record?
Answer: 1.83

Question: With A89G A116U U122A A135U as the variant, how does the self-cleavage read?
Answer: 0.21

Question: With A82U A94G A110G as the variant, how does the self-cleavage read?
Answer: 0.05

Question: With A98G C109U U122C as the variant, how does the self-cleavage read?
Answer: 0.04

Question: Which self-cleavage does the source give for A89G U108C U127C here?
Answer: 0

Question: Which self-cleavage does the source give for A89G A94G U130C here?
Answer: 1.19

Question: With A86G A91G A94G as the variant, how does the self-cleavage read?
Answer: 0.15

Question: Which self-cleavage does the source give for A82U A118G A126G U132C here?
Answer: 0.06

Question: Which self-cleavage does the source give for A96G U103C A111U U122C here?
Answer: 0.06

Question: With A89G A92G U103A as the variant, how does the self-cleavage read?
Answer: 0.66

Question: Which self-cleavage does the source give for U87C A91C A92G A116G A118G here?
Answer: 0.57

Question: With A82U A96G A116G as the variant, how does the self-cleavage read?
Answer: 0.13

Question: Which self-cleavage does the source give for A82U U87C A90G here?
Answer: 0.2

Question: For A94G C107A A126G, which self-cleavage is on record?
Answer: 0.01

Question: For U103C A118G A129G U132A, which self-cleavage is on record?
Answer: 0.05

Question: For A114G A125C U127C, which self-cleavage is on record?
Answer: 0.09

Question: With A111G U122C U132C as the variant, how does the self-cleavage read?
Answer: 0.01

Question: With A96C U97C A129G U130A as the variant, how does the self-cleavage read?
Answer: 0.32

Question: Which self-cleavage does the source give for A86C U120A U127C here?
Answer: 0.42

Question: Which self-cleavage does the source give for A96G U120A A129G here?
Answer: 1.64

Question: For A90G A117G A126G, which self-cleavage is on record?
Answer: 0.31

Question: Which self-cleavage does the source give for A94U A111G A140U here?
Answer: 0.02

Question: For A89G C113U A134U, which self-cleavage is on record?
Answer: 0.06

Question: Which self-cleavage does the source give for A82U U102C U108C U127C here?
Answer: 0

Question: For U108C U124C A126C, which self-cleavage is on record?
Answer: 0

Question: Which self-cleavage does the source give for U100C A118G U130C here?
Answer: 1.34

Question: For A92G U102C A116G, which self-cleavage is on record?
Answer: 1

Question: Which self-cleavage does the source give for A98U A114G U127A A129G here?
Answer: 0.04

Question: Which self-cleavage does the source give for A94G U120C U130C here?
Answer: 0.96

Question: With G84U U122C U131C as the variant, how does the self-cleavage read?
Answer: 0.15

Question: Which self-cleavage does the source give for A96G A126G U132G here?
Answer: 0.64

Question: For A86G A129C U131C U132C A135U, which self-cleavage is on record?
Answer: 0

Question: For A96G A134G A135G, which self-cleavage is on record?
Answer: 1.49

Question: For U87C U97C A140G, which self-cleavage is on record?
Answer: 0

Question: With A86G A89G A94G U130C as the variant, how does the self-cleavage read?
Answer: 0.69

Question: Which self-cleavage does the source give for U102G G104A U130C here?
Answer: 0

Question: For A90G A94G A114G, which self-cleavage is on record?
Answer: 0.12
